# Measured values reported in PubChem BioAssay (Tox21).
# Some structures have more than one record in an assay (separate samples or runs), and their calls can disagree. Active and inactive are the calls of the source. A call without a number means that no potency is given here. Unless noted, calls follow the shape of the dose curve; as a rule, active = well fitted curve in the direction sought with a large enough effect in the repeat runs; inconclusive = weak or mixed curves; inactive = no such curve, though single readings can be large; an effect the other way counts as inactive or inconclusive.
# Columns and labels:
# [1] = biological target: Estrogen receptor (Homo sapiens) (UniProt P03372); experiment: qHTS assay to identify small molecule agonists of the estrogen receptor alpha (ER-alpha) signaling pathway (AID 743075; calls by dose curve; also: potency is read from the fitted curve at half-maximal effect); settings: HEK293 ER-alpha-UAS-bla, beta-lactamase FRET ratio, 18 h; activation: at 70.1 µM (top of the series) unless noted
# [2] = qHTS assay to identify small molecule agonists of the farnesoid-X-receptor (FXR) signaling pathway - cell viability counter screen (AID 743218); settings: FXR-bla HEK293T viability, CellTiter-Glo luminescence, 16 h; viability change, negative = cytotoxic: at 62.6 µM (top of the series); also: nearly all actives have a fitted effect of over 45% in size; also: potency is read from the fitted curve at half-maximal effect
# How it was run: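 Parallel cytotoxicity test: compound-treated (16 h, 37 C) HEK 293T FXR-bla reporter cells were lysed with CellTiter-Glo and luminescence recorded.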
# [3] = A CellTox Green Cytotoxicity Assay to monitor cytotoxicity in HEK293 cells - 16 hour (AID 1224888); also: nearly all actives have a fitted effect of over 35% in size; also: potency is read from the fitted curve at half-maximal effect
# How it was run: (§1)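 Fluorescence intensity, read at 0, 8, 16, 24, 32 and 40 h of compound treatment, reflected dye binding to DNA of dead HEK293 cells; compounds (23 nL, DMSO) were added 5 h after plating cells with reagent.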
# [4] = biological target: Estrogen receptor beta (Homo sapiens) (UniProt Q92731); experiment: qHTS assay to identify small molecule antagonists of the estrogen receptor beta (ER-beta) signaling pathway (AID 1259378; active = well fitted inhibition curve with a large enough effect in the signal ratio in the repeat runs, not every such curve was filed as active; inconclusive = weak or mixed curves, or effect the other way; inactive = no such curve, though single readings can be large or run the other way; the % refers to the signal ratio; also: potency is read from the fitted curve at half-maximal effect); settings: ER-beta-UAS-bla HEK293T, beta-lactamase FRET ratio, 16 h; activity, negative = inhibition: at 92.4 µM (top of the series) unless noted
# How it was run: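 ER-beta-UAS-bla HEK293T (GripTite) cells in 2% charcoal-stripped FBS medium were preincubated 6 hr at 37C, dosed with compound, then stimulated with 1 nM E2 (final) for 16 hr; beta-lactamase reporter read by B/G FRET fluorescence after 2 hr substrate loading.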
# [5] = qHTS assay to identify small molecule antagonists of the thyroid receptor (TR) signaling pathway (AID 743065); also: potency is read from the fitted curve at half-maximal effect; nearly all actives have a fitted effect of over 55% in size
# How it was run: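 GH3.TRE-Luc rat pituitary cells carrying two TR response elements driving luciferase were plated for 4 h, given compound plus 1 nM T3 (final), and incubated 23.5 h at 37 C. ONE-Glo luminescence measured reporter inhibition; CellTiter-Fluor fluorescence tracked cytotoxicity.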
# [6] = biological target: Estrogen receptor (Homo sapiens) (UniProt P03372); experiment: qHTS assay to identify small molecule antagonists of the estrogen receptor alpha (ER-alpha) signaling pathway (AID 743069; active = well fitted curve in the direction sought with a large enough effect in the signal ratio in the repeat runs, not every such curve was filed as active; inconclusive = weak or mixed curves, or effect the other way; inactive = no such curve, though single readings can be large or run the other way; the % refers to the signal ratio; also: potency is read from the fitted curve at half-maximal effect); settings: HEK293 ER-alpha-UAS-bla, beta-lactamase ratio, antagonist mode; activity, negative = inhibition: at 69.4 µM (top of the series) unless noted
# How it was run: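 HEK293 cells stably carrying an ER-alpha-UAS-bla beta-lactamase reporter were pre-cultured overnight in 2% charcoal-stripped FBS medium. Test compounds in DMSO were added together with 17beta-estradiol for 18 hr at 37C. Read-out was fluorescence after 2 hr with LiveBLAzer B/G FRET substrate at room temperature.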
# [7] = qHTS assay to identify small molecule antagonists of the estrogen receptor alpha (ER-alpha) signaling pathway using the BG1 cell line (AID 743080; calls by dose curve;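 also: BG1 cells stimulated with 17beta-estradiol alongside compound; nearly all actives have a fitted effect of over 25% in size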; also: potency is read from the fitted curve at half-maximal effect); settings: BG1Luc4E2 ERE-luciferase antagonist mode, luminescence; activity change, negative = inhibition: at 70.3 µM (top of the series) unless noted
# How it was run: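 Readout is ONE-Glo luminescence, taken 30 min at room temperature after reagent addition, preceded by a CellTiter-Fluor viability read; BG1-Luc-4E2 cells had received compound and 17beta-estradiol for 21.5 h at 37 C.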
# [8] = qHTS assay to identify small molecule antagonists of the vitamin D receptor (VDR) signaling pathway - cell viability counter screen (AID 743225); settings: VDR-bla HEK293T viability, CellTiter-Glo luminescence, 16 h; viability change, negative = cytotoxic: at 61 µM (top of the series) unless noted; also: nearly all actives have a fitted effect of over 50% in size
# How it was run: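 Viability counter screen run in the same wells as the beta-lactamase reporter assay: HEK 293T VDR-UAS-bla cells, 16 h compound exposure at 37C with 3 nM (final) 1-alpha,25-dihydroxyvitamin D3. CellTiter-Glo luminescence, 30 min, room temperature.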
# [9] = A CellTox Green Cytotoxicity Assay to monitor cytotoxicity in HEK293 cells - 24 hour (AID 1224875); also: nearly all actives have a fitted effect of over 45% in size; also: potency is read from the fitted curve at half-maximal effect
# How it was run: as §1
# [10] = qHTS assay to identify small molecule antagonists of the sonic hedgehog signaling (Shh) pathway (AID 1259369; calls by dose curve; also: nearly all actives have a fitted effect of over 45% in size; also: potency is read from the fitted curve at half-maximal effect)
# How it was run: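 For antagonist detection, the reporter line received test compounds together with conditioned medium, incubated 24hr at 37 C, 5% CO2, then luminescence was recorded following 30min room-temperature luciferase reagent incubation.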
# [11] = qHTS assay for small molecule agonists of the p53 signaling pathway - cell viability (AID 651633; calls by dose curve;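 also: p53RE-bla HCT reporter cells with a stable beta-lactamase p53 reporter; nearly all actives have a fitted effect of over 30% in size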)
# How it was run: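 p53RE-bla cells, seeded at 4,000 per well and rested 5 h at 37 C/5% CO2, received compounds in DMSO for 16 h at 37 C. CellTiter-Glo was then added, and luminescence was read after 30 min at room temperature to gauge cytotoxicity.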
# [12] = qHTS assay to identify small molecule antagonists of the androgen receptor (AR) signaling pathway using the MDA cell line - cell viability counter screen (AID 743041; also: nearly all actives have a fitted effect of over 45% in size; also: potency is read from the fitted curve at half-maximal effect); settings: MDA-kb2 viability, CellTiter-Fluor, 16 h, cells co-treated with R1881 androgen agonist; viability change, negative = cytotoxic: at 70.3 µM (top of the series)
# How it was run: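 MDA-kb2 AR-luc human breast carcinoma cells (MMTV-luciferase, AR/GR responsive) were treated with compounds plus R1881 agonist for 16 h at 37 °C. Viability was read as CellTiter-Fluor fluorescence in the same wells as the reporter assay.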
# [13] = qHTS assay to identify small molecule antagonists of the progesterone receptor (PR) signaling pathway - cell viability counter screen (AID 1346798); also: nearly all actives have a fitted effect of over 50% in size; also: potency is read from the fitted curve at half-maximal effect
# How it was run: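 Luminescence readout (CellTiter-Glo, 30 min, RT) of viability in PR-UAS-bla HEK293T cells exposed to compound and R5020 agonist for 16 hr at 37C, 5% CO2; run in the same wells as the beta-lactamase reporter read.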
# [14] = qHTS assay to identify small molecule agonists of the progesterone receptor (PR) signaling pathway - cell viability counter screen (AID 1346799; calls by dose curve; also: nearly all actives have a fitted effect of over 45% in size; also: potency is read from the fitted curve at half-maximal effect)
# How it was run: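 HEK293T PR-UAS-bla, 3,000 cells/well, 2% charcoal-stripped FBS; 6 h settle, compound 16 h at 37C/5% CO2; LiveBLAzer 2 h RT, then CellTiter-Glo 30 min RT, luminescence read.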
# [15] = qHTS assay to identify small molecule antagonists of the peroxisome proliferator-activated receptor gamma (PPARg) signaling pathway - cell viability counter screen (AID 743194); settings: PPARg-bla HEK293H viability, CellTiter-Glo luminescence, 17 h; Potency: co-treated with 50 nM rosiglitazone unless noted; activity change, negative = cytotoxicity: at 62.6 µM (top of the series), co-treated with 50 nM rosiglitazone unless noted; also: nearly all actives have a fitted effect of over 55% in size; also: potency is read from the fitted curve at half-maximal effect
# How it was run: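 PPARg-UAS-bla HEK293H cells were plated, rested 5 h at 37 C, then treated with compounds plus rosiglitazone (50 nM final) for 17 h at 37 C; viability was then read by CellTiter-Glo luminescence after 30 min at room temperature.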
# [16] = biological target: Vitamin D3 receptor (Homo sapiens) (UniProt P11473); experiment: qHTS assay to identify small molecule antagonists of the vitamin D receptor (VDR) signaling pathway (AID 743223; active = well fitted inhibition curve with a large enough effect in the signal ratio in the repeat runs, not every such curve was filed as active; inconclusive = weak or mixed curves, or effect the other way; inactive = no such curve, though single readings can be large or run the other way; the % refers to the signal ratio); settings: VDR-UAS-bla HEK293T, beta-lactamase FRET ratio, 16 h; activity change, negative = inhibition: at 61 µM (top of the series) unless noted
# How it was run: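 Beta-lactamase reporter read-out: FRET substrate fluorescence after 2 h at room temperature, following 16 h exposure of VDR-bla cells to test compound plus 3 nM (final) 1alpha,25-dihydroxyvitamin D3 agonist at 37C.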
# [17] = qHTS assay to identify small molecule agonists of the estrogen receptor beta (ER-beta) signaling pathway - cell viability counter screen (AID 1259380); also: nearly all actives have a fitted effect of over 30% in size; also: potency is read from the fitted curve at half-maximal effect
# How it was run: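 CellTiter-Glo read, 30 min RT, same wells as bla assay; cells ER-beta-UAS-bla HEK293T; 16 hr compound, 37C; medium 2% charcoal-stripped FBS.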
# [18] = qHTS assay to identify aromatase inhibitors - cell viability counter screen (AID 743084); settings: MCF-7 aro ERE viability, CellTiter-Fluor, 24 h; activity change, negative = cytotoxicity: at 70.3 µM (top of the series);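 also: cells stimulated with testosterone during compound exposure; nearly all actives have a fitted effect of over 55% in size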
# [19] = biological target: Nuclear receptor subfamily 1 group I member 2 (Rattus norvegicus) (UniProt Q9R1A7); experiment: Rat pregnane X receptor (rPXR) activation by small molecules, qHTS assay (AID 1346983); settings: rPXR luciferase reporter cells, One-Glo luminescence, 24 h; max activation: active compounds read high; also: nearly all actives have a fitted effect of over 20% in size
# How it was run: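 Cell-based rPXR luciferase reporter assay, 2,000 cells per well, rested 5hr at 37 C before compound addition in DMSO, then 24 hr at 37 C. One-Glo reagent was added and luminescence read after 30 min at room temperature.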
# Tags tell the direction and shape of the fitted curve or compound fluorescence and quenching.
# Chain of UniProt P03372 (P03372 whole entry, looked up): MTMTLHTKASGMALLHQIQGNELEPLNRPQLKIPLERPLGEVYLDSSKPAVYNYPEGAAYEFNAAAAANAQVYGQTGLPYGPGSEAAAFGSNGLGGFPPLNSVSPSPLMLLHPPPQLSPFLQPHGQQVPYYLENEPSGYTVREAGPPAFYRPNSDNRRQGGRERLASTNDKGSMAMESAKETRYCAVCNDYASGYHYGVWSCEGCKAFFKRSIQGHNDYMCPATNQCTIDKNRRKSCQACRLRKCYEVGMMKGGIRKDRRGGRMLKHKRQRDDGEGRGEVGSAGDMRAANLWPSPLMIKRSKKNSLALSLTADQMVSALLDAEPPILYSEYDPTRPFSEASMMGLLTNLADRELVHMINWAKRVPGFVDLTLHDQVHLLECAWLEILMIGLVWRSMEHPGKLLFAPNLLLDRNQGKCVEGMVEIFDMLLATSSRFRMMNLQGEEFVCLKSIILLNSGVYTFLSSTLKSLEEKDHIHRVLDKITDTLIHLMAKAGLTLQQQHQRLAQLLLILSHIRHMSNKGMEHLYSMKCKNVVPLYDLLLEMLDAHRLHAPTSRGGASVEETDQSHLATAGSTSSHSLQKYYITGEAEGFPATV
# Chain of UniProt P11473 (P11473 whole entry, looked up): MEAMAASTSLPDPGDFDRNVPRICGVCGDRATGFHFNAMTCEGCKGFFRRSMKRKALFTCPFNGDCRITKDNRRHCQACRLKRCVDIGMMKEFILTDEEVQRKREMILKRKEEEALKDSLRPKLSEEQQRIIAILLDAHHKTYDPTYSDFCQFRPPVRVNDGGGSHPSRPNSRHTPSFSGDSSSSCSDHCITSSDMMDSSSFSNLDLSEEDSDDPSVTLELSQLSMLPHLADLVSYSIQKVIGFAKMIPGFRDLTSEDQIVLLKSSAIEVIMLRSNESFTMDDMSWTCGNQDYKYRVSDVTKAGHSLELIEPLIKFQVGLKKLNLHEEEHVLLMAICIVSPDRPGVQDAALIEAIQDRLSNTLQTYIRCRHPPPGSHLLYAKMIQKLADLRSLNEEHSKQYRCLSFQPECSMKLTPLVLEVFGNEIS
# Chain of UniProt Q92731 (Q92731 whole entry, looked up): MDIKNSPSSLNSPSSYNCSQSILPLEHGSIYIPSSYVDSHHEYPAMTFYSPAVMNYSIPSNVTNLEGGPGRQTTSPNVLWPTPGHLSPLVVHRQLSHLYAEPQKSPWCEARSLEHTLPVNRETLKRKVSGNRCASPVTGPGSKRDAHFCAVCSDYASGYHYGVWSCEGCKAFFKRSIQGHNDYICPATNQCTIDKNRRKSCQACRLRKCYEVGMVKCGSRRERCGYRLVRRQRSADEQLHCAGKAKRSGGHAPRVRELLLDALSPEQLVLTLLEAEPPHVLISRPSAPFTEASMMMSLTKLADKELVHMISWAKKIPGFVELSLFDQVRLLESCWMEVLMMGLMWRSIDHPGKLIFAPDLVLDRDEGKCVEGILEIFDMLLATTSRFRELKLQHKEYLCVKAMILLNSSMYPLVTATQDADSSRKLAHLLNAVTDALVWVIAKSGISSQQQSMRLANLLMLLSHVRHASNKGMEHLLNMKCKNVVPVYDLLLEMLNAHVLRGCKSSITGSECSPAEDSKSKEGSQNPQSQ
# Chain of UniProt Q9R1A7 (Q9R1A7 whole entry, looked up): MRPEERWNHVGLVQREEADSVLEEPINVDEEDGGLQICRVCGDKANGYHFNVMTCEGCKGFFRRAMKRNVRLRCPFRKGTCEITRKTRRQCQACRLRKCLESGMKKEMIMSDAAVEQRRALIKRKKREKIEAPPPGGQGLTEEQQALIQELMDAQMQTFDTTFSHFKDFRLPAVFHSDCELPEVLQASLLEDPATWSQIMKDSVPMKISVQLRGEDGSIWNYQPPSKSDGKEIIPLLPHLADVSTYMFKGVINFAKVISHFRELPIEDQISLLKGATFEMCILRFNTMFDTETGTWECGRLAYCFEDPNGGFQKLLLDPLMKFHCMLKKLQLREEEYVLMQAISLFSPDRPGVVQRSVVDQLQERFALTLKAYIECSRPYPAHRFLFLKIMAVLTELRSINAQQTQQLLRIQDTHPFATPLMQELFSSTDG
structure (smiles),measurement,setting,value
CC(O)CN1CCN(CC(=O)[O-])CCN(CC(=O)[O-])CCN(CC(=O)[O-])CC1.[Gd+3] (stereo unspecified),Potency,[1],active: 23.9 µM [inconclusive]
same,Potency,[2],inactive
same,Potency,[3],inactive
same,Potency,[4],inactive
CCc1cc2c(s1)-n1c(C)nnc1CN=C2c1ccccc1Cl,Potency,[5],"inconclusive: 26.6 µM [inhibitor, partial curve]"
same,Potency,[6],"inconclusive: 2.68 µM [rising, full curve]"
same,Potency,[7],active: 11.9 µM
same,Potency,[8],inactive
same,Potency,[9],"inconclusive: 26.8 µM [activator, single point]"
same,Potency,[3],"inconclusive: 26.8 µM [activator, single point]"
same,Potency,[10],"inconclusive: 29.8 µM [inhibitor, partial curve, poor fit]"
same,"activity, negative = inhibition",[4],inconclusive: -34.8% [at 42.5 µM]
CCN(CC)CCOC(=O)C(O)(c1ccccc1)c1ccccc1,Potency,[11],inactive
same,Potency,[12],"inconclusive: 0.0044 µM [rising, full curve]"
same,Potency,[13],"inconclusive: 37.6 µM [rising, single point]"
same,Potency,[14],inactive
CC1N=C(N)OC1c1ccccc1 (stereo unspecified),Potency,[15],inactive
same,Potency,[16],inactive
same,Potency,[8],inactive
same,Potency,[10],"inconclusive: 13.4 µM [inhibitor, single point]"
same,"activity, negative = inhibition",[4],inconclusive: 15.8%
same,Potency,[17],"inconclusive: 67.1 µM [cytotoxic, single point]"
same,Potency,[13],active: 37.7 µM
Fc1cc(Br)ccc1CBr,Potency,[2],inconclusive: 10.6 µM
O=[N+]([O-])c1cc(Cl)c(Cl)cc1Cl,Potency,[7],inactive
same,Potency,[9],"inconclusive: 54.7 µM [activator, single point]"
CCCCCBr,Potency,[16],inactive
same,Potency,[4],inactive
same,Potency,[13],inactive
O=C(O)C(Cl)(Cl)Br,Potency,[12],inactive
same,Potency,[2],inactive
same,Potency,[9],"inconclusive: 62 µM [activator, single point]"
same,Potency,[3],"inconclusive: 62 µM [activator, single point]"
same,Potency,[4],"inconclusive: 27.4 µM [inhibitor, partial curve]"
same,Potency,[14],inactive
CCn1cc[n+](C)c1 (tested in a mixture with another compound),Potency,[17],inactive
same,Potency,[13],"inconclusive: 2.72 µM [cytotoxic, single point]"
CN(C)C1CCCCC1,Potency,[15],"inconclusive: 38.5 µM [cytotoxic, partial curve, poor fit]"
same,Potency,[3],inactive
same,Potency,[10],inactive
same,Potency,[13],inactive
C[C@H](N)C(=O)c1ccccc1,"activity, negative = inhibition",[4],inconclusive: 33%
same,Potency,[13],inactive
CCCCn1cc[n+](C)c1 (tested in a mixture with another compound),Potency,[2],inactive
same,Potency,[8],inactive
same,Potency,[9],inactive
same,Potency,[10],inactive
CCC1(c2cccc(O)c2)CCCCN(C)C1 (stereo unspecified),Potency,[18],inactive
same,Potency,[15],inactive
same,Potency,[10],"inconclusive: 10.6 µM [inhibitor, partial curve, poor fit]"
same,max activation,[19],inactive: -1.16%
C[N+]1(C)[C@@H]2CC[C@H]1CC(OC(=O)C(CO)c1ccccc1)C2 (stereo partly specified),Potency,[12],inactive
same,Potency,[10],"inconclusive: 6.68 µM [inhibitor, single point]"
same,Potency,[13],"inconclusive: 2.98 µM [cytotoxic, single point]"
CC(C)CC(N(C)C)C1(c2ccc(Cl)cc2)CCC1 (stereo unspecified),Potency,[5],"inconclusive: 33.5 µM [inhibitor, single point]"
same,Potency,[10],inactive
same,Potency,[17],"inconclusive: 33.5 µM [cytotoxic, single point]"
same,Potency,[14],"inconclusive: 11.9 µM [rising, single point]"
ClCCN1CCOCC1,Potency,[4],inactive
BrCCc1ccccc1,Potency,[10],inactive
CC(C)CON=O,Potency,[12],"inconclusive: 0.0015 µM [rising, full curve, poor fit]"
same,Potency,[1],"inconclusive: 0.332 µM [falling, full curve]"
same,Potency,[16],inactive
same,"viability change, negative = cytotoxic",[8],inconclusive: 1.35% [cytotoxic] [at 28.5 µM]
same,Potency,[9],inactive
same,Potency,[13],inactive
